Several values for one entry are separate records, joined by “and”; a condition that tells them apart may be missing. Equal entries are not always repeated.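 Protocol summary: plate cells (96-well), add compound at 5 concentrations, incubate 48 h, interpolate endpoints linearly. GI50 marks 50% less growth.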 Activity calls are given as the source filed them. No stated cut-off is given here; in the data, active = GI50 up to about 1.1 µM and inactive = higher.

The subject of this experiment is NCI-H322M. Put plainly: growth of human tumour cells (NCI), 48 h.
With `CC(=O)O[C@H]1C(=O)N(c2cc3c4ccccc4ccc3c3ccccc23)[C@@H]1c1ccccc1`, the GI50 is inactive: 2.11 µM. Take `COc1ccc(C(=O)CC(=O)C(=O)Nc2ccc(C)c(C)c2)cc1`: the GI50 is inactive: > 100 µM. As to `CC(C)S(=O)(=O)ON1C(=O)c2ccc(N(C)C)cc2C1=O`, the GI50 was inactive: > 52.4 µM. Consider `C[C@H]1C(=O)c2c(cc(O)c(C3OC(CO)C(O)C(O)C3O)c2O)OC1c1ccc(O)c(O)c1` (some centres undefined), for which the GI50 is inactive: > 100 µM. The result for `CC(C)(C)CNCCO` reads inactive: > 100 µM. `O=C1C2=C(SCCS2)C(=O)c2ccccc21`: the GI50 was inactive: 1.77 µM. On to `COc1ccc(NC(=S)N/N=C(\C)c2nc3cccnc3[nH]2)cc1`, for which the GI50 is inactive: 5.93 µM. As to `O=C1CCCC2(c3ccccc3)Nc3ccccc3N12` (centres undefined), the GI50 was inactive: > 100 µM. Consider `Cc1cc(/N=C/c2ccc(Cl)cc2)n(-c2ccccc2)n1`, for which the GI50 is inactive: 46 µM. As for `COC1(OC)N=C(N)C2(C#N)C(C)=C3NCN(C)N=C3C12C#N` (centres undefined), the GI50 is inactive: > 100 µM. For the compound `Cc1nc2nn[nH]n2c(=O)c1CCO`, the GI50 was inactive: > 100 µM. Consider `CN(C)c1ccc2oc(=O)c3ccccc3c2c1`, for which the GI50 is inactive: > 100 µM. For the compound `Clc1ccc(/N=C2\c3ccccc3CN2c2ccc(Cl)cc2)cc1`, the GI50 is inactive: > 100 µM.

In the case of `COc1ccc2c(c1)CCc1c-2n(CCN(C)C)c2ccc(OC)cc12`, the GI50 was inactive: 13 µM. On to `O=C(O)c1ccccc1/C=N/N=C1NCCN1`, for which the GI50 was inactive: > 100 µM. In the case of `CC1CC(N)=Nc2ccccc2N1Cc1ccccc1` (centres undefined), the GI50 was inactive: 29 µM. In the case of `O=C1C(O)=C(CCCc2ccc(Oc3ccccc3)cc2)C(=O)c2ccccc21`, the GI50 is inactive: 10.7 µM. For `C=C(NC(=O)C(=C)NC(=O)c1csc(C2=NC3c4csc(n4)C4NC(=O)c5csc(n5)C(C(C)(O)C(C)O)NC(=O)C5CSC(=N5)/C(=C/C)NC(=O)C(C(C)O)NC(=O)c5csc(n5)C3(CC2)NC(=O)C(C)NC(=O)C(=C)NC(=O)C(C)NC(=O)C(C(C)CC)NC2C=Cc3c(C(C)O)cc(nc3C2O)C(=O)OC4C)n1)C(N)=O` (centres undefined), the GI50 was inactive: 5.69 µM. The result for `SCc1ccc(CS)s1` reads inactive: > 100 µM. For the compound `C=C(C)C1(Sc2ccc(OC)cc2)CC1`, the GI50 is inactive: 73.8 µM.

Regarding `S=C(N/N=C(/c1ccccc1)c1ccccn1)Nc1ccc(Cl)cc1`, the GI50 was active: 0.0546 µM.

On to `CN(C)C(=S)/N=c1\ssc(=S)n1Cc1cccs1`, for which the GI50 was inactive: 4.19 µM. Next, `Fc1cccc(C2SCc3nc4cc5ccccc5cc4n32)c1` (centres undefined): inactive: > 100 µM.

For `CC1(C)OCC2(CO1)CSCCCSCC1(COC(C)(C)OC1)CSCCCSC2`, the GI50 is inactive: > 100 µM. Next, `CCCN(CCCCC(NC(C)=O)C(=O)NCc1ccccc1)C(=O)NCCCl` (centres undefined): inactive: > 100 µM; `COc1ccc(OC)c(N2C(=O)/C(=C\c3ccccc3)SC2c2cc(OC)c(OC)c(OC)c2)c1` (centres undefined): inactive: > 100 µM; `C(#CP(c1ccccc1)c1ccccc1)P(C#CP(c1ccccc1)c1ccccc1)c1ccccc1`: inactive: > 100 µM. As for `Cc1ccc2nc3c(C(=O)NCCN(C)C)cccc3nc2c1`, the GI50 was inactive: 3.5 µM.

On to `COc1ccc(/C=C2/C(=O)C(c3ccccc3)N(c3ccccc3)C2=O)cc1OC` (centres undefined), for which the GI50 was inactive: > 10 µM. For `Cc1cc(OCc2nnc3n2N=C(c2cc(F)c(Cl)cc2Cl)/C(=C/c2ccc(-c4ccc(Cl)cc4)o2)S3)ccc1Cl`, the GI50 is inactive: > 50 µM.

With `N=C(N)N/N=C\c1c(-c2ccccc2)nc2sccn12`, the GI50 is inactive: 17.4 µM. The result for `CCCn1c2ccccc2c2ccc3c(c21)C(=O)C=CC3=O` reads inactive: > 10 µM. The result for `C#CCNC(=O)NCCCC(NC(C)=O)C(=O)NCc1ccccc1` (centres undefined) reads inactive: > 100 µM; that for `O=C(NCCCCCCNC(=O)c1cc(-c2ccccc2)nc2ccccc12)c1cc(-c2ccccc2)nc2ccccc12`, inactive: > 100 µM; that for `CN(C)NC(=O)NC12CC3CC(CC(C3)C1)C2`, inactive: > 100 µM. In the case of `COc1ccc2c(c1)-c1nc(=O)n(CCCN(C)C)c3ccc([N+](=O)[O-])c(c13)N2`, the GI50 was active: 0.927 µM. For the compound `O=C(CC(C(=O)c1ccsc1)c1cccs1)c1ccccc1` (centres undefined), the GI50 was inactive: > 100 µM.

For `CC(=O)NC1C(OCc2ccccc2)OC(CO)C(O)C1OCC(=O)NC(C)C(=O)NC(CCC(=O)Nc1ccc2c(c1)CN1C(=O)c3ccccc3C1=N2)C(N)=O` (centres undefined), the GI50 was inactive: > 100 µM. As for `CCOC(=O)C(=O)NCCCN1CCOCC1`, the GI50 was inactive: > 100 µM.

For `CN1CCN(C)C1c1cccc(C2N(C)CCN2C)c1`, the GI50 is inactive: > 100 µM. As to `C[C@@H]1CCC2C(C)(C)C(/C=C\C=O)C3(C)OC213` (some centres undefined), the GI50 is inactive: > 100 µM. As for `COc1cc(NS(C)(=O)=O)ccc1NCc1c[nH]c2ccc3ncccc3c12`, the GI50 was inactive: 21.7 µM. On to `CCCCCCC(=O)OC[n+]1ccc2c(C)c3[nH]c4ccccc4c3c(C)c2c1`, for which the GI50 is active: 0.802 µM. As for `CC(C)Cc1c(C#N)c(C#N)c(N)n1Cc1ccccc1`, the GI50 is inactive: > 100 µM. Regarding `C=CC(Br)(CBr)CCC(Br)C(C)(C)Br` (centres undefined), the GI50 was inactive: 13.9 µM. In the case of `O=C(Nc1ccc(Cl)cc1)c1cc2c(cc1Cl)Sc1nccn1S2(=O)=O`, the GI50 was inactive: > 100 µM.

Turning to `O=C1OC(c2ccccc2)=N/C1=C\c1cc(Cl)ccc1Cl`, the GI50 was inactive: > 100 µM. On to `COc1ccc(/C=C\c2cc(OC)c(OC)c(OC)c2)cc1OCC(=O)O`, for which the GI50 is inactive: 11.2 µM. For `O=C(Nc1cc(C(=O)Nc2cccc(S(=O)(=O)O)c2)cc(C(=O)Nc2cccc(S(=O)(=O)O)c2)c1)c1cccc(C(=O)Nc2cc(C(=O)Nc3cccc(S(=O)(=O)O)c3)cc(C(=O)Nc3cccc(S(=O)(=O)O)c3)c2)c1`, the GI50 is inactive: > 100 µM.

Turning to `COC(=O)[C@@H]1[C@H](O)[C@H](C)[C@H](O)[C@@](C)(O)/C=C\C=C(\C)C(=O)Nc2c(C)c(OC(C)=O)c3c(c2O)C(=O)C(C)=C2OCOC(=C23)/C(C)=C/[C@@](C)(O)[C@H](O)[C@@H](C)[C@H]1OC(C)=O`, the GI50 is inactive: > 100 µM and inactive: 69 µM. Regarding `C[C@@H]1OC2(O)[C@@H]3CCCN3C(=O)N(Cc3ccccc3)N2C1=O` (some centres undefined), the GI50 was inactive: > 100 µM. For `CC(=O)OCC1=C2C(OC(=O)C(C)C)CC3(COC(C)=O)OC3/C=C\C3(C)OC3C2OC1=O` (centres undefined), the GI50 is inactive: > 100 µM. Take `CC(=O)C1C(=O)C(=O)N(c2ccc(Br)cc2)C1=O` (centres undefined): the GI50 was inactive: > 100 µM. Next, `O=C(/C=C/c1ccsc1)c1cccs1`: inactive: > 100 µM; `CC(C)(CN)CN`: inactive: > 100 µM; `c1ccc2c(c1)Nc1c3ccccc3nc3cccc-2c13`: inactive: 1.17 µM. Consider `COc1cc(/C=C/c2ccc(OC)c(O)c2)cc(OC)c1`, for which the GI50 was inactive: 13.6 µM. Next, `O=C(NNCc1ccccc1O)c1ccccc1O`: inactive: 10.7 µM; `O=C1C(c2ccc([N+](=O)[O-])cc2)=[N+]([O-])c2ccccc21`: inactive: 69.5 µM.

The record behind these values is ChEMBL document CHEMBL1201862, “PubChem BioAssay data set” (2004).
